The supplement of paper PMC9446081
About 220 (0.56%) of roughly 39,000 compounds showed activity. Some of the results follow.

Test system: Escherichia coli K-12 BW25113
Assay: relative growth (OD600 normalised to plate interquartile mean) (fraction); higher = less growth inhibition, active = 0.2 or less
Conditions: 50 µM; LB; incubation time: overnight (16-24 h)
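Note: static incubation at 37 °C against the wild-type strain, values averaged over two biological replicates.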

Row | SMILES | relative growth
1 | C[C@H](CO)N1C[C@H](C)[C@@H](CN(C)S(=O)(=O)c2ccccc2)Oc2c(NC(=O)c3cnccn3)cccc2C1=O | inactive: 1.01
2 | C[C@H]1CN([C@@H](C)CO)C(=O)Cc2cc(NC(=O)C3CCCCC3)ccc2O[C@H]1CN(C)Cc1ccc(Cl)c(Cl)c1 | inactive: 1.01
3 | C[C@@H]1CCCCO[C@H](CN(C)Cc2ccc3c(c2)OCO3)[C@@H](C)CN([C@H](C)CO)C(=O)c2cc(NC(=O)Nc3ccc4c(c3)OCO4)ccc2O1 | inactive: 0.979
4 | COc1ccc(CCN(C)CCCOc2ccc(S(=O)(=O)c3c(C(C)C)c4ccccc4n3C)cc2)cc1OC | inactive: 1.01
5 | Cn1c(=O)c2c(nc(NCCN)n2C)n(C)c1=O | inactive: 1.01
6 | C[C@H](CO)N1C[C@H](C)[C@@H](CN(C)C(=O)Nc2ccc(C(F)(F)F)cc2)Oc2ccc(NS(C)(=O)=O)cc2C1=O | inactive: 0.962
7 | CC(C)(C)[S@@](=O)N1Cc2cc(C(=O)NCc3ccc4c(c3)OCO4)nc(CCNS(=O)(=O)c3ccccc3)c2[C@H]1CCO | inactive: 1.02
8 | CN(C(=O)C(Cl)Cl)c1ccc(OC(=O)c2ccco2)cc1 | inactive: 1.01
9 | C[C@H](CO)N1C[C@H](C)[C@@H](CN(C)C(=O)c2ccncc2)OCCCC[C@H](C)Oc2ccc(NC(=O)NC3CCCCC3)cc2C1=O | inactive: 0.986
10 | C[C@H](CO)N1C[C@H](C)[C@H](CN(C)C(=O)C2CCCCC2)OCCCC[C@H](C)Oc2ccc(NS(=O)(=O)c3ccc(Cl)cc3)cc2C1=O | inactive: 1.01
11 | C=CCOC(=O)[C@@H]1[C@H]2C(=O)O[C@H](c3ccccc3)[C@H](c3ccccc3)N2[C@H](c2ccc(OCCOC(=O)[C@@H]3C[C@@H]4C(=O)N[C@@H](CC(C)C)C(=O)N4[C@@H]3c3ccc(O)cc3)cc2)[C@@]12C(=O)Nc1ccccc12 | inactive: 1.07
12 | C[C@@H]1CCCCO[C@@H](CN(C)Cc2ccc(Cl)c(Cl)c2)[C@H](C)CN([C@H](C)CO)C(=O)c2cc(NC(=O)Nc3ccc(F)cc3)ccc2O1 | inactive: 1.03
13 | Cc1c(C#N)c(Sc2ccccc2Cl)nc2ccccc12 | inactive: 0.955
14 | COC1CCNCC1 | inactive: 0.986
15 | CC(C)NC(=O)N(C)C[C@H]1Oc2ccc(NS(=O)(=O)c3ccccc3)cc2C(=O)N([C@@H](C)CO)C[C@@H]1C | inactive: 1.03
16 | C[C@H]1CN([C@@H](C)CO)C(=O)Cc2cc(NC(=O)CCCCCC(=O)Nc3ccccc3N)ccc2O[C@H]1CN(C)S(=O)(=O)c1cn(C)cn1 | inactive: 1.02
17 | C[C@@H]1CN([C@@H](C)CO)C(=O)c2cccc(NS(=O)(=O)c3ccc(F)cc3)c2O[C@@H]1CN(C)Cc1ccc(Cl)c(Cl)c1 | inactive: 0.987
18 | C[C@H](CO)N1C[C@H](C)[C@H](CN(C)C(=O)Nc2ccc(F)cc2)OCc2ccccc2-c2c(n(C)c3ccccc23)C1=O | inactive: 1.04
19 | CN1C(=O)NC2(CCNCC2)C1=O | inactive: 1.03
20 | CC(C)C(=O)NC1=N[C@H]2[C@@H](N=CN2[C@H]2C[C@@H](O)[C@@H](CO)O2)C(=O)N1 | inactive: 0.996

Row | SMILES | relative growth
21 | Cc1ccc(S(=O)(=O)N(C)C[C@H]2Oc3ccc(NS(=O)(=O)c4c(C)noc4C)cc3C(=O)N([C@H](C)CO)C[C@H]2C)cc1 | inactive: 1.05
22 | O=C(CN1CCOCC1)NCC[C@H]1CC[C@@H](NS(=O)(=O)c2ccc(F)cc2)[C@@H](CO)O1 | inactive: 1.01
23 | C[C@@H]1CCCCO[C@H](CN(C)Cc2ccc(C(F)(F)F)cc2)[C@H](C)CN([C@@H](C)CO)C(=O)c2cc(NS(=O)(=O)c3ccc(F)cc3)ccc2O1 | inactive: 1.04
24 | C[C@H]1CN([C@@H](C)CO)C(=O)c2cc(C#CC3(O)CCCC3)cnc2O[C@H]1CN(C)S(=O)(=O)c1ccc(F)cc1 | inactive: 0.997
25 | C[C@@H]1CN([C@@H](C)CO)C(=O)c2cc(NC(=O)Nc3ccc4c(c3)OCO4)ccc2O[C@@H](C)CCCCO[C@H]1CN(C)C(=O)Nc1cccc2ccccc12 | inactive: 1.03
26 | COc1ccc(S(=O)(=O)N(C)C[C@H]2Oc3ccc(N(C)C)cc3C(=O)N([C@@H](C)CO)C[C@@H]2C)cc1 | inactive: 1.01
27 | C[C@@H]1CN([C@@H](C)CO)C(=O)c2cc(NC(=O)c3ccccc3)ccc2O[C@@H](C)CCCCO[C@@H]1CN(C)S(=O)(=O)c1ccccc1 | inactive: 1
28 | COc1cccc2c1C(=O)c1c(O)c3c(c(O)c1C2=O)C[C@](O)(C(C)=O)C[C@H]3O[C@H]1C[C@@H](N)[C@@H](O)[C@@H](C)O1 | inactive: 0.924
29 | C[C@@H]1CN([C@H](C)CO)C(=O)c2cc(NC(=O)Nc3cccc4ccccc34)ccc2O[C@@H](C)CCCCO[C@H]1CN(C)S(=O)(=O)c1ccc(Cl)cc1 | inactive: 1.03
30 | C[C@H]1CN([C@@H](C)CO)C(=O)c2cccc(NC(=O)c3nc4ccccc4s3)c2O[C@H]1CN(C)C(=O)Nc1ccc(C(F)(F)F)cc1 | inactive: 1
31 | Cc1ccc(S(=O)(=O)N2CCNCC2)cc1 | inactive: 0.981
32 | Cc1noc(C)c1S(=O)(=O)N(C)C[C@H]1Oc2ccc(NS(=O)(=O)c3ccc(Cl)cc3)cc2C(=O)N([C@@H](C)CO)C[C@H]1C | inactive: 1.01
33 | NC(=S)N[C@H]1CCS(=O)(=O)C1 | inactive: 1.03
34 | C[C@@H]1CN([C@H](C)CO)C(=O)Cc2cc(NC(=O)Cn3cnnn3)ccc2O[C@@H]1CN(C)Cc1ccccc1 | inactive: 0.974
35 | CC1(C)OCC(CO)([N+](=O)[O-])CO1 | inactive: 0.969
36 | Cc1noc(C)c1S(=O)(=O)Nc1ccc2c(c1)CC(=O)N([C@H](C)CO)C[C@H](C)[C@@H](CN(C)Cc1ccc(-c3ccccc3)cc1)O2 | inactive: 1.02
37 | COc1ccc(CNC(=O)N(C)C[C@@H]2OCc3ccccc3-c3c(n(C)c4ccccc34)C(=O)N([C@@H](C)CO)C[C@H]2C)cc1 | inactive: 0.996
38 | Nc1nnc(SC[C@@H](O)CO)s1 | inactive: 1
39 | COc1ccc(CCNC(=O)[C@@]2(Sc3ccc(C)cc3)CC(=O)N(Cc3cc(C(F)(F)F)cc(C(F)(F)F)c3)[C@@H]2c2ccc(CO)cc2I)cc1 | inactive: 0.958
40 | O=C1OCC=C[C@H]2O[C@@]34C=CCN(CCN5CCOCC5)C(=O)[C@H]3N(CCCCCCO)C(=O)[C@@H]4[C@@H]12 | inactive: 0.986

Row | SMILES | relative growth
41 | Cc1noc(C)c1NC(=O)N(C)C[C@H]1Oc2ncc(C#CCN(C)C)cc2C(=O)N([C@H](C)CO)C[C@H]1C | inactive: 1.01
42 | CO[C@@H]1CN(C)C(=O)c2cc(NC(=O)NC3CCCCC3)ccc2OC[C@@H](C)N(CCc2ccccc2)C[C@@H]1C | inactive: 1.02
43 | Cc1noc(C)c1NC(=O)Nc1cccc2c1O[C@@H](CN(C)C(=O)Nc1cccc3ccccc13)[C@@H](C)CN([C@@H](C)CO)C2=O | inactive: 0.99
44 | CO[C@@H]1CN(C)C(=O)c2ccc(NC(=O)Nc3ccc(Cl)cc3)cc2OC[C@@H](C)N(C(=O)Nc2c(C)noc2C)C[C@@H]1C | inactive: 0.972
45 | COc1ccccc1CNC(=O)C[C@@H]1C[C@@H]2c3cc(NC(=O)NC4CCCC4)ccc3O[C@@H]2[C@@H](CO)O1 | inactive: 0.998
46 | C[C@H]1CCCCO[C@H](CN(C)S(=O)(=O)c2ccc(F)cc2)[C@@H](C)CN([C@@H](C)CO)C(=O)c2cc(NC(=O)Nc3ccc(F)cc3)ccc2O1 | inactive: 0.97
47 | Cc1ccc(-c2cnc3c(c2)C(=O)N([C@@H](C)CO)C[C@@H](C)[C@@H](CN(C)C(=O)Cc2ccncc2)O3)cc1 | inactive: 1.01
48 | C[C@H](CO)N1C[C@H](C)[C@H](CN(C)Cc2ccc(Cl)c(Cl)c2)Oc2ccc(NS(=O)(=O)c3ccccc3)cc2CC1=O | inactive: 1
49 | COc1ccc(S(=O)(=O)N(C)C[C@@H]2Oc3ccc(NS(=O)(=O)c4cccs4)cc3CC(=O)N([C@@H](C)CO)C[C@@H]2C)cc1 | inactive: 0.985
50 | CC12CCC(=O)C=C1CCC1C2C(O)CC2(C)C1CCC2(O)C(=O)COP(=O)([O-])[O-].CC[NH+](CC)CC.CC[NH+](CC)CC (centres undefined) | inactive: 1.1
51 | N[C@@H](CCO)c1cccc(Cl)c1 | inactive: 1.01
52 | Cc1ccc(S(=O)(=O)Nc2ccc3c(c2)C(=O)N([C@@H](C)CO)C[C@@H](C)[C@H](CN(C)C(=O)c2ccccc2)OCCCC[C@@H](C)O3)cc1 | inactive: 1.01
53 | COc1ccccc1C#Cc1ccc2c(c1)O[C@@H](CN(C)C(C)=O)[C@@H](C)CN([C@H](C)CO)S2(=O)=O | inactive: 1
54 | Cc1ccc(S(=O)(=O)N(C)C[C@H]2Oc3c(NS(=O)(=O)c4ccc(F)cc4)cccc3C(=O)N([C@H](C)CO)C[C@H]2C)cc1 | inactive: 0.999
55 | C[C@@H]1CN([C@H](C)CO)C(=O)c2cc(NC(=O)C3CC3)ccc2O[C@@H]1CN(C)S(=O)(=O)c1ccc(F)cc1 | inactive: 0.974
56 | CC(C)c1cc(C(C)C)c(CC(=O)NS(=O)(=O)Oc2c(C(C)C)cccc2C(C)C)c(C(C)C)c1 | inactive: 0.738
57 | COc1ccc(NC(=O)N(C)C[C@H]2OCCCC[C@@H](C)Oc3ccc(NC(=O)CCC(F)(F)F)cc3C(=O)N([C@H](C)CO)C[C@@H]2C)cc1 | inactive: 1.04
58 | C[C@@H]1CCCCO[C@@H](CN(C)C(=O)Cc2ccccc2)[C@@H](C)CN([C@@H](C)CO)C(=O)c2cc(NC(=O)CCC(F)(F)F)ccc2O1 | inactive: 0.993
59 | C[C@@H]1CN([C@H](C)CO)C(=O)c2cccc(NC(=O)C3CCCCC3)c2O[C@@H]1CN(C)S(=O)(=O)c1cn(C)cn1 | inactive: 1.01
